From the supplement of paper PMC11348887 come the findings set out here.

Counter-ions that a name gives are not always drawn. The list shows a part of the results. No stated cut-off is given here; in the data, active = -2 or less and inactive = the rest. Repeats are few or missing, and single values can be far off.
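Further: nuclei counted from DAPI counterstain by automated high-content image analysis, four fields per well at ×20 in 384-well plates, with sequential b-score then z-score normalization.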

The subject of this assay is hPSC-derived cortical neurons (WA09). Nature of the assay: nuclei number (viability) z-score; higher = more surviving cells. Particulars: 5 µM; treatment: days 7-14 after plating, readout day 21.
Take `Cc1cccc(Cc2c[nH]cn2)c1C` [Detomidine HCl]: the “nuclei number (z-score)” value is inactive: 0.27.
With `Cc1cccc(C)c1NC(=O)CN1CCCC1=O` [Nefiracetam], the “nuclei number (z-score)” value was inactive: 1.08.
With `NC(=O)c1cc(N2CC2)c([N+](=O)[O-])cc1[N+](=O)[O-]` the figure was inactive: 0.359.
With `Cn1cc(C2=C(c3cn(C4CCN(Cc5ccccn5)CC4)c4ccccc34)C(=O)NC2=O)c2ccccc21` the figure was inactive: -0.717.
For `C[C@@H]1CC[C@@]2(OC1)O[C@H]1C[C@H]3[C@@H]4CC=C5C[C@@H](O[C@@H]6O[C@H](CO)[C@@H](O[C@@H]7O[C@@H](C)[C@H](O)[C@@H](O)[C@H]7O)[C@H](O)[C@H]6O[C@@H]6O[C@@H](C)[C@H](O)[C@@H](O)[C@H]6O)CC[C@]5(C)[C@H]4CC[C@]3(C)[C@H]1[C@@H]2C` [Dioscin], the “nuclei number (z-score)” value is active: -3.37.
With `C=CCN1CC[C@]23c4c5ccc(O)c4O[C@H]2C(=O)CC[C@@]3(O)[C@H]1C5` [Naloxone HCl Dihydrate] the figure was inactive: 1.94.
With `C=CCN1CC[C@]23c4c5ccc(O)c4O[C@H]2C(=O)CC[C@@]3(O)[C@H]1C5` [Naloxone HCl] the figure was inactive: 0.0366; with `CNC1CC(N)C(O)C(OC2OC(CO)C(O)C3OC4(OC(C(N)CO)C(O)C(O)C4O)OC23)C1O` (configuration not stated) [Hygromycin B], active: -3.43; with `O=C1C=CC[C@@H]2[C@H]3CCCN4CCC[C@@H](CN12)[C@@H]34` [Sophocarpine], inactive: 0.107.
Turning to `CC(=O)O[C@H]1C[C@@H]2CC[C@@H]3[C@H](CC[C@@]4(C)[C@H]3C[C@H]([N+]3(C)CCCCC3)[C@@H]4OC(C)=O)[C@@]2(C)C[C@@H]1[N+]1(C)CCCCC1` [Pancuronium dibromide], the “nuclei number (z-score)” value was inactive: 0.0928.
Turning to `O=C(NCC1CCOCC1)c1cnc(Nc2ccc(Cl)cc2Cl)nc1C(F)(F)F`, the “nuclei number (z-score)” value is inactive: -0.605.
In the case of `COC(=O)[C@@H](N)CCCNC(=N)N[N+](=O)[O-]`, the “nuclei number (z-score)” value is inactive: 0.594.
On to `CN1CCCCC1Cn1cc(C(=O)c2cc([N+](=O)[O-])ccc2I)c2ccccc21` (configuration not stated), for which the “nuclei number (z-score)” value is inactive: 6.52.
With `NCC(O)c1ccc(O)cc1` (configuration not stated) [(+_-)-Octopamine HCl] the figure was inactive: 0.665; with `O=c1ccc2cc(O[C@@H]3O[C@H](CO)[C@@H](O)[C@H](O)[C@H]3O)c(O)cc2o1` [Esculin], inactive: 0.0474.
For the compound `O=C(O)C(=O)c1cn(Cc2ccccc2)c2ccc(-c3ccc(OC(F)(F)F)cc3)cc12` [Tiplaxtinin (PAI-039)], the “nuclei number (z-score)” value was inactive: 0.578.
Consider `c1ccc2c(c1)Nc1ccccc1S2` [Phenothiazine], for which the “nuclei number (z-score)” value is inactive: -0.381.
As for `CC(C)[C@]12O[C@H]1[C@@H]1O[C@]13[C@]1(O[C@H]1C[C@H]1C4=C(CC[C@@]13C)C(=O)OC4)[C@@H]2O` [Triptolide (PG490)], the “nuclei number (z-score)” value is inactive: 0.62.
In the case of `CC(C)(C)c1cc(C=C(C#N)C#N)cc(Br)c1O`, the “nuclei number (z-score)” value is inactive: 1.09.
In the case of `NC[C@H](CC(=O)O)c1ccc(Cl)cc1` [(R)-baclofen] it was inactive: 4.03; in that of `CC(NC(C)(C)C)C(=O)c1cccc(Cl)c1` (configuration not stated) [Amfebutamone HCl], inactive: -0.955.
As for `CN[C@@H]1[C@@H](O)[C@@H](O[C@@H]2[C@@H](O)[C@H](O[C@H]3O[C@H](CN)CC[C@H]3N)[C@@H](N)C[C@H]2N)OC[C@]1(C)O.CN[C@@H]1[C@@H](O)[C@@H](O[C@@H]2[C@@H](O)[C@H](O[C@H]3O[C@H]([C@@H](C)N)CC[C@H]3N)[C@@H](N)C[C@H]2N)OC[C@]1(C)O.CN[C@@H]1[C@@H](O)[C@@H](O[C@@H]2[C@@H](O)[C@H](O[C@H]3O[C@H]([C@@H](C)NC)CC[C@H]3N)[C@@H](N)C[C@H]2N)OC[C@]1(C)O` [Gentamicin Sulfate], the “nuclei number (z-score)” value was inactive: -0.613.
Regarding `Cn1c(CCCC(=O)O)nc2cc(N(CCCl)CCCl)ccc21` [Bendamustine HCl], the “nuclei number (z-score)” value is inactive: 0.587.
With `O=C1CC[C@@]2(O)[C@H]3Cc4ccc(O)c5c4[C@@]2(CCN3CC2CC2)[C@H]1O5` [Naltrexone HCl] the figure was inactive: -0.346.
With `Cc1sc2c(c1C)C(c1ccc(Cl)cc1)=N[C@@H](CC(N)=O)c1nnc(C)n1-2`, the “nuclei number (z-score)” value was active: -3.89.
Take `[O-][n+]1ccccc1[S-].[O-][n+]1ccccc1[S-].[Zn+2]` [Zinc Pyrithione]: the “nuclei number (z-score)” value was active: -2.4.
Turning to `N[C@@H]1C[C@H]1c1ccccc1` [Tranylcypromine (2-PCPA) HCl], the “nuclei number (z-score)” value was inactive: 0.128.
Regarding `CN1[C@@H]2C[C@@H](OC(=O)[C@H](CO)c3ccccc3)C[C@H]1[C@@H]1O[C@@H]12` [Scopolamine HBr], the “nuclei number (z-score)” value is inactive: -0.996.
`CN(C)CCc1ccc(O)cc1` [Hordenine]: the “nuclei number (z-score)” value is inactive: -1.29.
Turning to `C/C(=C\c1csc(C)n1)[C@@H]1C[C@@H]2O[C@@H]2CCC[C@H](C)[C@H](O)[C@@H](C)C(=O)C(C)(C)[C@@H](O)CC(=O)O1` [Epothilone A], the “nuclei number (z-score)” value was inactive: -0.886.
`COC1=C[C@@H]2[C@@H]3Cc4ccc(OC)c(O)c4[C@]2(CCN3C)CC1=O` [Sinomenine]: the “nuclei number (z-score)” value is inactive: -0.0393.
Turning to `COc1ccc(N(C(=O)Oc2c(C)cccc2C)c2ccnc(Nc3ccc(N4CCN(C)CC4)cc3)n2)c(OC)c1`, the “nuclei number (z-score)” value is inactive: 0.671.
For `O=[N+]([O-])C(Br)(CO)CO` [Bronopol], the “nuclei number (z-score)” value is inactive: 0.243.
With `CN(C)C(=O)Oc1ccc[n+](C)c1` [Pyridostigmine Bromide] the figure was inactive: 0.205; with `CN1CCN(c2nc3ccccc3nc2Cl)CC1`, inactive: -0.198; with `CCN1CC2(OC(=O)c3ccccc3NC(C)=O)CCC(OC)C34C1C(CC23)C1(O)CC(OC)C2CC4C1(O)C2OC` (configuration not stated) [Lappaconite HBr], inactive: -0.217.
On to `C[C@@H]1[C@H](O)[C@@H](C)/C=C/C=C/CC/C=C/C=C/C=C/C=C/[C@H](O[C@H]2O[C@@H](C)[C@H](O)[C@@H](N)[C@H]2O)C[C@@H]2O[C@](O)(C[C@@H](O)[C@H](O)CC[C@@H](O)C[C@@H](O)C[C@@H](O)CC(=O)O[C@H]1C)C[C@H](O)[C@H]2C(=O)O` [Nystatin (Fungicidin)], for which the “nuclei number (z-score)” value was inactive: 0.499.
